Molecules are shown by their SMILES. The whole screen tested about 52,000 compounds, of which about 1,700 (3.3%) were called active. Rule as the data show it: active = survival mostly below about 52% (no sharp cut-off); inactive = mostly above about 56%. Some of the results follow.

For the test, the system named is Wild type. Kind of test: S. aureus survival, RN4220 and DeltatarO strains – OD600, teichoic acid synthesis inhibitors, primary screen (AID 463173). As to conditions: S. aureus RN4220 wild type/DeltatarO growth, OD600, 18 h, active compounds read low, screened at 18.75 µg/mL (by protocol).
As to `CCOc1ccc(/C=C/c2nc(C#N)c(N3CCC(C)CC3)o2)cc1`, the survival was inactive: 116%.
For `COc1ccccc1CNC(=O)CCCCn1c(=O)c2ccccc2n(CC(=O)Nc2cccc(Cl)c2)c1=O` the value was inactive: 85%; for `COC(=O)c1cc2oc3ccccc3c2n1Cc1ccccc1Cl`, inactive: 60%; for `CCc1ccc(Sc2cc(C(=O)NCCCN3CCC(C)CC3)c3ccccc3n2)cc1`, inactive: 68%.
As for `N#CC(C#N)=C(C#N)c1cc2c([nH]1)CCCC2`, the figure is inactive: 95%; as for `O=c1c(-c2cc(-c3ccccc3)nc3c2COc2ccccc2-3)coc2ccc(Cl)cc12`, inactive: 126%; as for `COc1ccc(CNC(=O)C(=O)Nc2cccc(C)c2C)cc1`, inactive: 91%.
As for `Cc1ccc(-n2ncc3c(N4CCN(c5ccc(F)cc5)CC4)ncnc32)cc1`, the figure is inactive: 83%; as for `COc1ccc2oc(-c3ccc(NC(=O)c4ccc(Cl)cc4Cl)cc3)nc2c1`, inactive: 76%.
Take `CCc1ccc(NC(=O)C2CCCN(c3nnc(C)c4c(C)n(-c5ccccc5)nc34)C2)cc1` (stereo not drawn): the survival was inactive: 68%.
As for `O=C(Nc1cc(Cl)ccc1Cl)c1cc(S(=O)(=O)N2CCc3ccccc3C2)ccc1F`, the figure is inactive: 78%.
As for `COc1ccc(C)cc1NC(=O)c1c(C)nc2ccccn12`, the figure is inactive: 102%; as for `CC1CC(NNc2ccc(Br)cc2)NC(=S)N1` (stereo not drawn), inactive: 118%.
On to `O=C(Cn1c(-c2cccs2)cc2ccccc21)N1CCN(c2ccc(F)cc2)CC1`, for which the survival is inactive: 80%.
For `COC(=O)c1c(-c2cccs2)csc1NC(=O)c1ccc(C)cc1` the value was inactive: 79%; for `Cc1ccc(CNS(=O)(=O)c2ccc3c(c2)CC(C)N3C(=O)C2CCC2)cc1` (stereo not drawn), inactive: 97%.
On to `O=C(O)CC1SC(=O)N(c2ccccc2)C1=O` (stereo not drawn), for which the survival is inactive: 109%.
For `COc1ccc(OC)c(C(=O)CN2C(=O)N(c3ccc(C)cc3)S(=O)(=O)c3ccccc32)c1` the value was inactive: 82%; for `Cc1cc(Br)ccc1NC(=O)c1c(C)oc2ncnc(N3CCCCC3)c12`, inactive: 73%; for `Cc1ccccc1N1CC(c2nc3ccccc3n2Cc2ccc(Br)cc2)CC1=O` (stereo not drawn), inactive: 32%.
In the case of `CCOc1ccc(CNC(=O)C2CCN(C(=O)N3CC(CC)Oc4ccc(C)cc43)CC2)cc1OC` (stereo not drawn), the survival is inactive: 88%.
Consider `Cc1cc(NC(=O)c2cc(-c3ccc(Cl)c(Cl)c3)on2)n(-c2ccccc2)n1`, for which the survival was inactive: 105%.
As for `CCOC(=O)CSc1nc2sc3c(c2c(=O)n1-c1ccc(OC)cc1)CC(C(C)C)OC3` (stereo not drawn), the figure is inactive: 77%.
For `COc1ccccc1NC(=O)Cn1c(=O)n(CC2CCC(C(=O)NCCc3ccccc3)CC2)c(=O)c2ccccc21` (stereo not drawn) the value was inactive: 58%.
Consider `CCOC(=O)N1CCc2c(sc3c2C(=O)NC(c2ccc(C(=O)OC)cc2)N3)C1` (stereo not drawn), for which the survival is inactive: 69%.
As for `Cc1nnc(SCC(=O)Nc2ccc(N(C)C)cc2)[nH]c1=O`, the figure is inactive: 92%.
For `CCc1ccc(NC(=O)Cn2c(=O)n(CCCC(=O)NCCc3ccc(OC)c(OC)c3)c(=O)c3ccccc32)cc1` the value was inactive: 94%; for `CCN(CC)CCOC(=O)c1ccc(NC(=O)c2cc3cc(OC)ccc3oc2=O)cc1`, inactive: 72%; for `COCCNC(=O)CN1C(=O)COc2ccc(S(=O)(=O)N3CCCC3)cc21`, inactive: 118%.
For `CCOc1ccc(Sc2cc(C(=O)NCc3ccccc3Cl)c3ccccc3n2)cc1` the value was inactive: 80%; for `CC(C)C(=O)c1cn(CC(=O)N2CCCC2)c2ccccc12`, inactive: 105%.
As for `O=C(CCc1ccccc1)N/N=C/c1ccco1`, the survival is inactive: 93%.
On to `c1ccc(CCn2nnnc2C(c2cccnc2)N2CCc3ccccc32)cc1` (stereo not drawn), for which the survival was inactive: 127%.
On to `Cc1c(Cl)cccc1-n1nc(C)c2c(C)cc(=O)n(CC(=O)N3CCCc4ccccc43)c21`, for which the survival was inactive: 71%.
For `Cc1ccc(CNC(=O)CCCN2C(=O)CCn3nc(-c4cccn4C)cc32)cc1` the value was inactive: 129%; for `COc1ccc(-c2nc3ccccc3n3c(-c4ccc(OC)cc4)c4c(=O)n(C)c(=O)n(C)c4c23)cc1`, inactive: 75%.
As for `CCCNC(=O)C1CCN(c2nc3ccc(C)cc3[nH]2)CC1`, the figure is inactive: 55%; as for `CCCOc1ccc(CNC(=O)C2CCN(C(=O)c3sccc3-n3cccc3)CC2)cc1`, inactive: 71%.
Regarding `Cc1cc2oc3c(c(=O)c2cc1C)C(c1ccc(C(C)C)cc1)N(c1nc(C)c(C)s1)C3=O` (stereo not drawn), the survival is inactive: 66%.
With `Cc1cnc(=O)[nH]c1SCC(=O)Nc1cc(C(F)(F)F)ccc1Cl`, the survival was inactive: 72%.
For `CCOC(=O)c1ccc2c(c1)N(Cc1ccc(F)cc1Cl)C(=O)c1ccccc1S2` the value was inactive: 77%; for `Cc1cccc(C(=O)Nc2ccc(N3CCC(N4CCCCC4)CC3)c(C(=O)O)c2)c1`, inactive: 73%; for `CCN1CCN(c2cc(C)c3cc(NC(=O)/C=C/c4ccc(C)cc4)ccc3n2)CC1`, inactive: 71%.
As for `COc1cccc(NC(=O)N(Cc2cn(C)c3ccccc23)C2CCCCCC2)c1`, the figure is active: 0%; as for `Cc1ccc(C)n1-c1nnc(N2CCCC(C(=O)NCc3cccc(Br)c3)C2)s1` (stereo not drawn), inactive: 131%.
On to `CC1CCCCN1C(=O)c1ccccc1NC(=O)c1ccco1` (stereo not drawn), for which the survival is inactive: 106%.
On to `COCCNC(=O)CSc1nc(-c2ccccc2)[nH]c1-c1ccc(C)cc1`, for which the survival was inactive: 85%.
As for `COc1cc(CNc2ccc3[nH]c(=O)[nH]c3c2)cc(Br)c1OCc1ccccc1F`, the figure is inactive: 90%; as for `Cc1cccc(CN2CCN(CC(=O)Nc3c(C)cccc3C)S2(=O)=O)c1`, inactive: 134%.
As for `CC1=C(C(=O)NCc2ccc(Cl)cc2)C2(CCC(C)CC2)OC1=O` (stereo not drawn), the figure is inactive: 87%.
For `NC1=NC(c2cc(F)cc(F)c2)n2c(nc3ccccc32)N1` (stereo not drawn) the value was inactive: 70%; for `Cc1ccc(Cl)cc1NC(=O)CC1Sc2ccccc2NC1=O` (stereo not drawn), inactive: 89%; for `COc1ccc(C(C(=O)NCc2ccccc2)N(Cc2ccco2)C(=O)c2cnccn2)cc1` (stereo not drawn), inactive: 101%.
For the compound `Cc1ccc(CNC(=O)CCc2c(C)nc3c4c(C)cc(C)nc4nn3c2C)cc1`, the survival was inactive: 85%.
For the compound `NC(=O)CSc1oc(-c2cccs2)nc1S(=O)(=O)c1ccc(Br)cc1`, the survival was inactive: 152%.
For `Cc1cccc(C(=O)Nc2ccc(C(=O)OCc3cc(=O)n4c(C)csc4n3)cc2)c1` the value was inactive: 121%; for `CCCCOc1cccc(C(=O)N(Cc2ccc(Br)o2)C2CCS(=O)(=O)C2)c1` (stereo not drawn), inactive: 72%; for `Cc1ccc(NC(=O)CCn2cnc3ccccc3c2=O)cc1C`, inactive: 100%.
As for `O=C(Nc1cccc(Cl)c1)C1CCN(S(=O)(=O)Cc2ccccc2)CC1`, the figure is inactive: 80%.
As for `O=C(c1cnc2c(c1)COc1ccccc1-2)c1ccccc1O`, the figure is active: 5%; as for `Cn1nc(-c2ccccc2F)c2cc(C(=O)Nc3cc(F)ccc3F)sc21`, inactive: 94%.
Turning to `Cc1ccccc1Cn1cc(CCC(=O)NCc2cccc(Br)c2)c2ccccc21`, the survival is inactive: 116%.
As for `O=C(Cn1c(=O)c(C(F)(F)F)nc2ccccc21)Nc1ccc(Br)cc1F`, the figure is inactive: 66%.
For `COc1ccc(S(=O)(=O)N2CCN(c3ccccc3)CC2)cc1-c1noc(C)n1` the value was inactive: 89%.
Consider `COC(=O)c1ccc(NC(=O)N2CCN(c3nnc(C)c4c(C)n(-c5ccccc5)nc34)CC2)cc1`, for which the survival was inactive: 65%.
In the case of `CC(C)c1cnc2c(c1SCC(=O)c1ccccc1)c(=O)n(C)c(=O)n2C`, the survival is inactive: 66%.
For `O=C(NCc1ccccc1)c1ccc2c(c1)N(Cc1ccccc1)C(=O)c1ccccc1S2(=O)=O` the value was inactive: 92%; for `COc1ccc(S(=O)(=O)NCC(c2ccco2)N2CCN(c3ccc(F)cc3)CC2)cc1` (stereo not drawn), inactive: 66%.
For `CC(C)(C)NC(=O)CSc1nc(-c2ccc(F)cc2)cc(C(F)(F)F)n1` the value was inactive: 78%; for `COc1ccc(Cc2nc3ccc(C(=O)NCCc4ccc(OC)c(OC)c4)cc3o2)cc1`, inactive: 68%.
As for `Cc1cc(C)cc(NC(c2nnc(-c3cccc(F)c3)o2)c2ccc(F)cc2Cl)c1` (stereo not drawn), the figure is inactive: 37%.
For the compound `CCOC(=O)Cn1c(=O)n(C2CCCCC2)c2nc(-c3ccc(OC)cc3)nc(C(N)=O)c21`, the survival was inactive: 85%.
For `CC(C)(C)n1cnc2cc(NS(=O)(=O)c3ccccc3)ccc21` the value was inactive: 112%.
For `Cn1c(=O)n(C)c2cc(CNCc3ccccc3)ccc21` the value was inactive: 86%.
For `Cc1cc(C)c(S(=O)(=O)Nc2cc(Cl)c3oc4c(c3c2)C(=O)CCC4)cc1C` the value was inactive: 97%.
For the compound `Cc1ccc(CNS(=O)(=O)c2cc(Br)cc3c2N(C(=O)C2CC2)CC3)cc1`, the survival is inactive: 66%.
As for `Cc1ccc(Cn2c(=O)n(Cc3ccccc3)c(=O)c3c(C)c(C)sc32)cc1`, the figure is inactive: 83%; as for `Cc1ccc(CNC(=O)C(=O)NCC(c2ccco2)S(=O)(=O)c2ccc(C)cc2)cc1` (stereo not drawn), inactive: 80%.
For `CCOc1ccc(C(=O)Nc2ccc(-c3nnc4n3CCCCC4)cc2)cc1OCC` the value was inactive: 73%.
On to `Cc1cccc2c(=O)cc(CSCC(=O)Nc3ccc(Cl)cc3)[nH]c12`, for which the survival was inactive: 143%.
As for `CCCCNC(=O)CN1C(=O)c2c(c3ccccc3n2C)C1c1ccc(OC)cc1` (stereo not drawn), the figure is inactive: 99%; as for `CC(C)(C)C(=O)Nc1nc2nc(-c3ccccc3)cc(=O)n2[nH]1`, inactive: 83%; as for `COc1ccc(Nc2nc(Nc3ccc(OC)cc3OC)nc(N3CCOCC3)n2)c(OC)c1`, inactive: 55%.
As for `Cc1ccc2oc(-c3cccc(NC(=O)c4ccc(N5CCC(C)CC5)c([N+](=O)[O-])c4)c3)nc2c1`, the figure is inactive: 136%; as for `COc1cccc(/C=N/NC(=O)CSCc2ccccc2)c1O`, inactive: 108%.
Turning to `COc1ccc(C2CC(=O)c3cc(-c4nc(-c5cccc([N+](=O)[O-])c5)cs4)c(=O)n(-c4ccc(F)cc4)c3C2)cc1` (stereo not drawn), the survival was inactive: 76%.
For `N/C(CN1CCCC1=O)=N\O`, the survival was inactive: 114%.
For `Cc1oc(-c2ccc(Cl)cc2)nc1CN1CCCC(C(=O)NCCc2ccccc2)C1` (stereo not drawn) the value was inactive: 29%.

The values above are taken from PubChem BioAssay AID463173 (ICCB-Longwood Screening Facility, Harvard Medical School, 2010).
